Reference: PMC4336329 (PLoS ONE, 2015)
In all, about 310,000 compounds went through this assay and about 14,000 (4.5%) showed an effect of 50% or more. Effects have a minus sign here. The list shows a part of the results.

Target: human ether-à-go-go-related gene (hERG) potassium channel (human, UniProt Q12809)
Experiment: primary screen, population patch clamp on CHO cells stably expressing hERG
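Further: peak tail current of the secondary pulse compared with the same well before compound.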

human ether-à-go-go-related gene (hERG) potassium channel, sequence (Q12809 whole entry, looked up): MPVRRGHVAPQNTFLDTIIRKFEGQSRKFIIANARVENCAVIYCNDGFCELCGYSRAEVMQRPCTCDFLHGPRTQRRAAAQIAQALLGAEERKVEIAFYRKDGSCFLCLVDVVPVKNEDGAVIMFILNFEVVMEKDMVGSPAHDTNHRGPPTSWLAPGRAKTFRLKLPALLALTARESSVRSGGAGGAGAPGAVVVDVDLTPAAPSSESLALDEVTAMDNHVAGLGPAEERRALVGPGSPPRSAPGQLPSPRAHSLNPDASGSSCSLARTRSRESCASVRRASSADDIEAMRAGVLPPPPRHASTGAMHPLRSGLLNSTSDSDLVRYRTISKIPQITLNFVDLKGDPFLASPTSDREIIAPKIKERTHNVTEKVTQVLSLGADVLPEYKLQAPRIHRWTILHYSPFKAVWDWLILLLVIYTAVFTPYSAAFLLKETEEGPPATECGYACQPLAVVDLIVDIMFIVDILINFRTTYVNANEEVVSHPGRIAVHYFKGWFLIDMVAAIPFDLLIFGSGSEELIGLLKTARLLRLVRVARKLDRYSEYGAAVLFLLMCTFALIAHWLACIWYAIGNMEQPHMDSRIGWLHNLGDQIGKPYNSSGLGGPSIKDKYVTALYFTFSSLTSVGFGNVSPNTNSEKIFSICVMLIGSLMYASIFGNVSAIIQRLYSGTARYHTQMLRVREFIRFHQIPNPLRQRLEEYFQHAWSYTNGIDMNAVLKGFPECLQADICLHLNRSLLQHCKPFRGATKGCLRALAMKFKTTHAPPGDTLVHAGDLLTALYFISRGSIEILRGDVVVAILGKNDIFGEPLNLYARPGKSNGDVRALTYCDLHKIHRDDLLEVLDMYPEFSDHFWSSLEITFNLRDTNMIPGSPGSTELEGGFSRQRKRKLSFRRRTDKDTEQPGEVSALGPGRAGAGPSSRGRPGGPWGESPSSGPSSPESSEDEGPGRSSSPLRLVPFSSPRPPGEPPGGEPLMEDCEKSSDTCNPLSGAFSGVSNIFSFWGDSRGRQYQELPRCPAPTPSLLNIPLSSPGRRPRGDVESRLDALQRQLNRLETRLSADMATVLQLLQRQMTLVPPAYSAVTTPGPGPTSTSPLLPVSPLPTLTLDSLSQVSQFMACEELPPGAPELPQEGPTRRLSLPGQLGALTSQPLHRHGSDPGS

Compared with `CC(C)OC(=O)CSc1nc(-c2ccc(F)cc2)cc(C(F)(F)F)n1`, `COc1ccc(CNC(=O)COc2ccc(F)cc2)cc1` is lower in “hERG current change (%, negative = inhibition) at 10uM” value: 11.7% for the first, 2.33% for the second.

First: COc1cccc(C2CC(c3ccc(C)cc3)=NN2C(=O)c2ccccc2F)c1OC (centres unmarked)
Second: COc1ccc(-c2cc(C(=O)N(C)CC(=O)Nc3ccccc3Br)c3ccccc3n2)cc1OC
The “hERG current change (%, negative = inhibition) at 10uM” value of the first is higher: 11.8% for the first, -15.1% for the second.

Going from `C=CCSc1ncnc2sc(C)c(C)c12` to `CCOC(=O)c1sc2nc(C)nc(SC(C)C(=O)NC3CC3)c2c1C` (centres unmarked), the “hERG current change (%, negative = inhibition) at 10uM” value rises from 9.87% to 10%.

Going from `CS(=O)(=O)c1ccc(N)cc1` to `NS(=O)(=O)c1ccc(CCNC(=O)c2cncc(Br)c2)cc1`, the “hERG current change (%, negative = inhibition) at 10uM” value falls from 7.62% to -2.92%.

Going from `O=C(Nc1nccs1)c1ccc2c(c1)OCO2` to `O=C(NCc1csc(-c2cccs2)n1)Nc1cccc(Cl)c1`, the “hERG current change (%, negative = inhibition) at 10uM” value falls from 16.3% to 5.12%.

First: CC1(C)CC(=O)C/C(=N/NC(=O)C2CCN(S(=O)(=O)c3cccs3)CC2)C1
Second: Cc1ccc(CN2CC(C(=O)N3CCN(S(=O)(=O)c4ccc(C)cc4C)CC3)CC2=O)cc1 (centres unmarked)
The “hERG current change (%, negative = inhibition) at 10uM” value of the first is higher: 20% for the first, -28.2% for the second.

First: O=c1[nH]c(=S)n(C2CC2)c(O)c1C=Nc1cccc(C(F)(F)F)c1
Second: Cc1nnsc1S(=O)(=O)Cc1ccccc1C(F)(F)F
The “hERG current change (%, negative = inhibition) at 10uM” value of the first is higher: 12.8% for the first, -3.42% for the second.

Compared with `CNC(=S)N1CCC(NC(=O)c2ccco2)CC1`, `COCCCNC(=S)NC1CC2CCC(C1)N2Cc1ccccc1` (centres unmarked) is lower in “hERG current change (%, negative = inhibition) at 10uM” value: 0.31% for the first, -33.8% for the second.

First: COc1cc(-c2noc(C)c2-c2ccc(N(C)C)nc2)cc(OC)c1OC
Second: Cc1ccc(SC(=O)c2c(C)noc2-c2cc(C)on2)cc1
The “hERG current change (%, negative = inhibition) at 10uM” value of the first is lower: -26.4% for the first, 11.8% for the second.

Compared with `Cc1ccc(NC(=S)NN2CCOCC2)c(C)c1`, `Cc1ccc(C2(c3noc(CN4CCOCC4)n3)CCCC2)cc1` is higher in “hERG current change (%, negative = inhibition) at 10uM” value: 5.25% for the first, 17.3% for the second.

First: O=C(Nc1nnc(-c2ccc3c(c2)CCCC3)o1)c1ccccc1Cl
Second: O=C(Nc1nnc(-c2ccccc2)s1)c1cccc(S(=O)(=O)N2CCOCC2)c1
The “hERG current change (%, negative = inhibition) at 10uM” value of the first is lower: -10.2% for the first, 7.54% for the second.

Going from `CCOP(=O)(OCC)c1cccc(OP(=O)(c2cccc([N+](=O)[O-])c2)c2cccc([N+](=O)[O-])c2)c1` to `COc1ccc(C(=S)N2CCOCC2)cc1OC(=O)c1ccc([N+](=O)[O-])cc1`, the “hERG current change (%, negative = inhibition) at 10uM” value falls from 11.1% to -63%.

Going from `Cn1nnnc1SCC(=O)N1CCN(C(c2ccccc2)c2ccccc2)CC1` to `COc1cccc(-n2c(N)cc(=O)nc2SCC(=O)N2CCN(c3ccccc3)CC2)c1`, the “hERG current change (%, negative = inhibition) at 10uM” value rises from -14.7% to 18.7%.

Going from `CSc1ccc(C(=O)C2CCCN(C(=O)CCc3c(C)nn(C)c3C)C2)cc1` (centres unmarked) to `Cc1ccccc1OCCn1nc(C(=O)O)c2ccccc2c1=O`, the “hERG current change (%, negative = inhibition) at 10uM” value falls from 0.803% to -20.5%.

First: COc1ccc([N+](=O)[O-])cc1NC(=O)COC(C)=O
Second: COC(=O)c1sc(-c2ccc(C(C)(C)C)cc2)cc1NC(=O)COCC(=O)O
The “hERG current change (%, negative = inhibition) at 10uM” value of the first is higher: 31.5% for the first, 19.3% for the second.

Compared with `COc1ccc(C=Nc2cccnc2N)cc1`, `CCOc1ccc(/C=C(/NC(=O)c2ccccc2Cl)C(=O)O)cc1` is lower in “hERG current change (%, negative = inhibition) at 10uM” value: 21.9% for the first, 13% for the second.

First: CCCNC(=O)c1ccc(SCC(=O)N(CC)CC)c([N+](=O)[O-])c1
Second: CCOc1cccc2sc(N(CCN(CC)CC)C(=O)c3cccc(N4C(=O)CCC4=O)c3)nc12.Cl
The “hERG current change (%, negative = inhibition) at 10uM” value of the first is higher: -13.2% for the first, -68.4% for the second.

First: Cc1nn(C(=O)c2ccoc2C)c(N)c1-c1ccccc1
Second: Cc1cccnc1-n1c(-c2ccccc2)nc2ccccc2c1=O
The “hERG current change (%, negative = inhibition) at 10uM” value of the first is lower: -7.95% for the first, -2.8% for the second.

Compared with `Cc1ccc(Nc2nc(C(=O)NCc3ccco3)cs2)cc1`, `Cc1ccc2oc(-c3ccc(C)c(NC(=O)Cc4cccs4)c3)nc2c1` is higher in “hERG current change (%, negative = inhibition) at 10uM” value: -13.5% for the first, 12% for the second.

Compared with `O=C(NC1CCSc2ccccc21)c1cccc(Br)c1` (centres unmarked), `Brc1cccc(CNCc2cccs2)c1` is lower in “hERG current change (%, negative = inhibition) at 10uM” value: 16.7% for the first, -10.2% for the second.

First: CC(C)Cc1cc(C(=O)N2CCC(N3CCC(C(=O)NC4CC4)CC3)CC2)n[nH]1
Second: O=C(CN1C(=O)C2CC=C(Cl)CC2C1=O)N1CCOCC1 (centres unmarked)
The “hERG current change (%, negative = inhibition) at 10uM” value of the first is lower: -12.4% for the first, -2.87% for the second.

Going from `C/C(=N\NC(=O)COc1ccc(C(C)(C)C)cc1)c1ccc(OC(F)F)cc1` to `CCOC(=O)c1ccccc1NC(=O)c1ccccc1NS(C)(=O)=O`, the “hERG current change (%, negative = inhibition) at 10uM” value rises from -1.27% to -0.0503%.

Going from `CN1CCN(S(=O)(=O)c2cccc(C(=O)Oc3cccc(C#N)c3)c2)CC1` to `C#CCN1C(=O)C(O)(CC(=O)c2cccc(OC)c2)c2ccccc21` (centres unmarked), the “hERG current change (%, negative = inhibition) at 10uM” value rises from -1.89% to 11.9%.

First: CC1=C(C(=O)OCc2ccccc2)C(c2ccco2)C2=C(CC(C)(C)CC2=O)N1 (centres unmarked)
Second: CC12CCC(C(=O)NNc3ccccc3)(OC1=O)C2(C)C (centres unmarked)
The “hERG current change (%, negative = inhibition) at 10uM” value of the first is lower: -7.52% for the first, 10.6% for the second.

First: Cc1cc(O)c(C(C)C)cc1N=C1CSC(=O)N1
Second: CC(C)Oc1c(N2CCOCC2)c(=O)c1=O
The “hERG current change (%, negative = inhibition) at 10uM” value of the first is lower: 4.9% for the first, 16.3% for the second.

First: CC(Oc1cccc(Cl)c1)C(=O)Nc1ccc(N2CCOCC2)cc1N1CCOCC1 (centres unmarked)
Second: CC(C)(C)n1nnnc1C(c1cccs1)N1CCCc2ccccc21 (centres unmarked)
The “hERG current change (%, negative = inhibition) at 10uM” value of the first is lower: -47.9% for the first, -15.5% for the second.

Compared with `COc1cccc2c(=O)ccoc12`, `COc1ccccc1CCn1cc(C#N)c(=O)[nH]c1=O` is higher in “hERG current change (%, negative = inhibition) at 10uM” value: -7.89% for the first, 14.7% for the second.

Compared with `Cc1cn2c(nc1=O)OC1C(O)C(COC(=O)c3ccccc3)OC12` (centres unmarked), `Brc1ccc(-c2nnc3n2C2(CCCC2)Cc2ccccc2-3)o1` is lower in “hERG current change (%, negative = inhibition) at 10uM” value: 12.9% for the first, -15% for the second.

First: Nc1cccnc1Sc1cc(Cl)cc(Cl)c1
Second: NC(=O)c1nsc(C(=O)N(CC(=O)NC2CCCC2)c2ccc(F)c(Cl)c2)c1N
The “hERG current change (%, negative = inhibition) at 10uM” value of the first is lower: -18.1% for the first, 7.4% for the second.

With `Cc1nnc(NC(=O)C2CCCC2)s1` the “hERG current change (%, negative = inhibition) at 10uM” value was 17.3%.
